Assay results as given in the supplement of paper PMC12217912.
Some of the results follow. Sequences were assembled here from the parent chain. Inactive controls read about 0.05.

B1: TEV protease; numbered along this chain (parent)
chain: MGESLFKGPRDYNPISSSICHLTNESDGHTTSLYGIGFGPFIITNKHLFRRNNGTLVVQSLHGVFKVKDTTTLQQHLVDGRDMIIIRMPKDFPPFPQKLKFREPQREERICLVTTNFQTKSMSSMVSDTSCTFPSGDGIFWKHWIQTKDGQCGSPLVSTRDGFIVGIHSASNFTNTNNYFTSVPKNFMELLTNQEAQQWVSGWRLNADSVLWGGHKVFMVKPEEPFQPVKEATQL

Variants of: B1
Assay: raw area under fraction-flipped curve 0-4 h after induction (AUC4h, not background-subtracted), DNA-recorder readout of cleavage of the substrate (dimensionless); higher = more cleavage of the substrate by the protease variant
Details: temperature: 34 °C; time window: 0-4 h after rhamnose induction
Experimental: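 In vivo DNA recorder in E. coli TOP10(DE3) ΔrhaA at 34 °C. Each TEVp single-site mutant (parent TEVp 0) is paired with a single-site variant of the 7-mer TEVs (canonical ENLYFQ|S). The substrate sits between flexible linkers in a Bxb1-sfGFP-TEVs-SsrA fusion, so cleavage stabilises Bxb1 and speeds flipping of a recombination array, read by NGS. The value is the raw area under the fraction-flipped curve over 0-4 h after rhamnose induction (AUC4h), with ≥20 reads per time point. It is not background-subtracted; inactive controls average about 0.047.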
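Note: Bxb1 expression induced with 0.2% (w/v) L-rhamnose at OD600 near 0.5, cultures sampled hourly, flipped fraction per protease–substrate barcode pair counted by paired-end Illumina sequencing.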

N177W
area with substrate ENLYFQA: 0.0641
area with substrate ENLYFQC: 0.0691
area with substrate ENLYFQG: 0.0422
area with substrate ENLYFQI: 0.069
area with substrate ENLYFQL: 0.0584
area with substrate ENLYFQN: 0.0564
area with substrate ENLYFQS: 0.0753
area with substrate ENLYFQT: 0.0559
area with substrate ENLYFQW: 0.0776

Q75L
area with substrate ENLYFQA: 0.0863
area with substrate ENLYFQS: 0.13

A232D
area with substrate ENLYFQA: 0.106
area with substrate ENLYFQD: 0.0915
area with substrate ENLYFQF: 0.0737
area with substrate ENLYFQH: 0.0836
area with substrate ENLYFQK: 0.0643
area with substrate ENLYFQL: 0.0572
area with substrate ENLYFQM: 0.098
area with substrate ENLYFQN: 0.0783
area with substrate ENLYFQP: 0.053
area with substrate ENLYFQQ: 0.0957
area with substrate ENLYFQR: 0.0537
area with substrate ENLYFQS: 0.116
area with substrate ENLYFQT: 0.0584
area with substrate ENLYFQW: 0.0692
area with substrate ENLYFQY: 0.0792

S127N
area with substrate ENLYFQA: 0.116
area with substrate ENLYFQD: 0.0817
area with substrate ENLYFQH: 0.0844
area with substrate ENLYFQK: 0.0691
area with substrate ENLYFQL: 0.0471
area with substrate ENLYFQM: 0.0912
area with substrate ENLYFQN: 0.083
area with substrate ENLYFQP: 0.0571
area with substrate ENLYFQQ: 0.0615
area with substrate ENLYFQR: 0.0653
area with substrate ENLYFQS: 0.108
area with substrate ENLYFQT: 0.0666
area with substrate ENLYFQV: 0.0608
area with substrate ENLYFQW: 0.0757
area with substrate ENLYFQY: 0.0988

G2P
area with substrate ENLYFQA: 0.127
area with substrate ENLYFQC: 0.175
area with substrate ENLYFQI: 0.0484
area with substrate ENLYFQL: 0.0658
area with substrate ENLYFQN: 0.0959
area with substrate ENLYFQR: 0.0586
area with substrate ENLYFQS: 0.127
area with substrate ENLYFQT: 0.0595
area with substrate ENLYFQV: 0.0739
area with substrate ENLYFQW: 0.072

P96D
area with substrate ENLYFQA: 0.147
area with substrate ENLYFQC: 0.157
area with substrate ENLYFQD: 0.091
area with substrate ENLYFQF: 0.0902
area with substrate ENLYFQG: 0.0934
area with substrate ENLYFQK: 0.0785
area with substrate ENLYFQM: 0.0727
area with substrate ENLYFQP: 0.0593
area with substrate ENLYFQQ: 0.0791
area with substrate ENLYFQR: 0.0674
area with substrate ENLYFQS: 0.114
area with substrate ENLYFQT: 0.0609
area with substrate ENLYFQW: 0.0623
area with substrate ENLYFQY: 0.0823

S158Q
area with substrate ENLYFQA: 0.0462
area with substrate ENLYFQG: 0.0516
area with substrate ENLYFQH: 0.0451
area with substrate ENLYFQI: 0.0745
area with substrate ENLYFQK: 0.054
area with substrate ENLYFQL: 0.0603
area with substrate ENLYFQM: 0.0572
area with substrate ENLYFQN: 0.0506
area with substrate ENLYFQQ: 0.0541
area with substrate ENLYFQR: 0.0478
area with substrate ENLYFQS: 0.0613
area with substrate ENLYFQT: 0.0594
area with substrate ENLYFQV: 0.0406
area with substrate ENLYFQW: 0.064

H47T
area with substrate ENLYFQA: 0.0584
area with substrate ENLYFQC: 0.0593
area with substrate ENLYFQD: 0.0639
area with substrate ENLYFQG: 0.0541
area with substrate ENLYFQH: 0.0605
area with substrate ENLYFQK: 0.059
area with substrate ENLYFQL: 0.0505
area with substrate ENLYFQM: 0.054
area with substrate ENLYFQN: 0.0435
area with substrate ENLYFQP: 0.0526
area with substrate ENLYFQR: 0.063
area with substrate ENLYFQS: 0.061
area with substrate ENLYFQT: 0.0662
area with substrate ENLYFQW: 0.0405

Q234E
area with substrate ENLYFQA: 0.0935
area with substrate ENLYFQC: 0.135
area with substrate ENLYFQD: 0.072
area with substrate ENLYFQK: 0.0696
area with substrate ENLYFQL: 0.0548
area with substrate ENLYFQR: 0.0544
area with substrate ENLYFQS: 0.105
area with substrate ENLYFQW: 0.0547
area with substrate ENLYFQY: 0.0869

W199T
area with substrate ENLYFQA: 0.0643
area with substrate ENLYFQC: 0.0747
area with substrate ENLYFQD: 0.0676
area with substrate ENLYFQI: 0.0686
area with substrate ENLYFQK: 0.0634
area with substrate ENLYFQM: 0.0693
area with substrate ENLYFQN: 0.0517
area with substrate ENLYFQP: 0.0548
area with substrate ENLYFQR: 0.0572
area with substrate ENLYFQS: 0.0676
area with substrate ENLYFQY: 0.0574

P89G
area with substrate ENLYFQA: 0.0816
area with substrate ENLYFQF: 0.057
area with substrate ENLYFQK: 0.0748
area with substrate ENLYFQM: 0.0614
area with substrate ENLYFQN: 0.071
area with substrate ENLYFQP: 0.0469
area with substrate ENLYFQR: 0.057
area with substrate ENLYFQS: 0.0873
area with substrate ENLYFQY: 0.0976

V220F
area with substrate ENLYFQA: 0.101
area with substrate ENLYFQC: 0.0912
area with substrate ENLYFQD: 0.0607
area with substrate ENLYFQF: 0.0807
area with substrate ENLYFQG: 0.099
area with substrate ENLYFQL: 0.0634
area with substrate ENLYFQM: 0.0971
area with substrate ENLYFQP: 0.0806
area with substrate ENLYFQR: 0.0577
area with substrate ENLYFQS: 0.104
area with substrate ENLYFQT: 0.0719
area with substrate ENLYFQV: 0.0618
area with substrate ENLYFQW: 0.0528

I85S
area with substrate ENLYFQA: 0.0653
area with substrate ENLYFQC: 0.0577
area with substrate ENLYFQG: 0.0439
area with substrate ENLYFQI: 0.0547
area with substrate ENLYFQK: 0.0571
area with substrate ENLYFQL: 0.0648
area with substrate ENLYFQN: 0.0406
area with substrate ENLYFQR: 0.056
area with substrate ENLYFQS: 0.054
area with substrate ENLYFQV: 0.0695

G213E
area with substrate ENLYFQA: 0.075
area with substrate ENLYFQH: 0.0604
area with substrate ENLYFQM: 0.0593
area with substrate ENLYFQR: 0.0588
area with substrate ENLYFQS: 0.0599
area with substrate ENLYFQT: 0.0449
area with substrate ENLYFQV: 0.0537

N24I
area with substrate ENLYFQA: 0.09
area with substrate ENLYFQC: 0.0807
area with substrate ENLYFQD: 0.0649
area with substrate ENLYFQG: 0.102
area with substrate ENLYFQH: 0.0769
area with substrate ENLYFQI: 0.0626
area with substrate ENLYFQK: 0.0725
area with substrate ENLYFQL: 0.0538
area with substrate ENLYFQM: 0.0663
area with substrate ENLYFQN: 0.0643
area with substrate ENLYFQP: 0.0605
area with substrate ENLYFQR: 0.0581
area with substrate ENLYFQS: 0.0822
area with substrate ENLYFQT: 0.0652
area with substrate ENLYFQW: 0.0546
area with substrate ENLYFQY: 0.0681
